Data from PubChem BioAssay (NCATS).
Some of the results follow. Shown are side measurements of this screen, not its main read-out; they come without a call. Compounds called inactive in the main read-out are mostly missing here. The note in brackets gives the kind of curve behind each potency; many fits are weak.

Test: qHTS Assay for Lipid Storage Modulators (AID 1519)
Details: Drosophila S3 cells, BODIPY lipid droplet/cell ratio, laser cytometry, cells loaded with oleic acid; for AC50: measured here: lipid (BODIPY) channel AC50
Method in brief: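 Cells seeded at 5,000 per well were treated with compounds over a concentration series and loaded with oleic acid (400 uM, as added). Lipid droplet fluorescence (488 nm excitation, 500-530 nm channel) was read by laser-scanning cytometry and normalized to 20 uM Triacsin C.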

[1] = measured here: cell count channel max response
[2] = measured here: lipid channel max response
Tags give direction and shape of the fitted curve.

| Structure (SMILES) | max response [1] | AC50 | max response [2] |
| --- | --- | --- | --- |
| COC(=O)CC1[C@@]2(C)C[C@]34OC5(C)OC6(C7CC(=O)OC(c8ccoc8)[C@]7(C)CCC6(O5)[C@]13C)C(OC(C)=O)[C@]4(OC(C)=O)C2OC(C)=O (stereo partly specified) | 22.3% | 15.8 µM [rising, single point] | 36.1% |
| O=c1c(-c2cccs2)nc2cnc(Nc3ccccc3)nc2n1C[C@H]1CCCO1 | 15.9% | 22.4 µM [falling, single point] | -40.5% |
| CC(=O)OC1CCC2(C)C3=C(CCC2C1(C)C)[C@@]1(C)CCC(C(C)CCC=C(C)C)[C@@]1(C)CC3 (stereo partly specified) | 25% | 35.5 µM [rising, single point] | 46% |
| O=S(=O)(c1ccccc1)N1CCC2(CC1)CN(Cc1nccs1)C2 | 22.9% | 0.501 µM [rising, partial curve, poor fit] | 30.1% |
| N#CCCn1c(=O)cnc2cnc(Oc3cccc(Cl)c3)nc21 | 26% | 10 µM [rising, partial curve, poor fit] | 31% |
| c1cncc(-c2nc(NCCN3CCOCC3)c3ccccc3n2)c1 | 17% | 0.562 µM [rising, full curve, poor fit] | 24.4% |
| Cn1cccc1C(=O)N1CCC2(CC1)CCN(c1ncccn1)CC2 | 14.5% | 4.47 µM [rising, full curve, poor fit] | 28.6% |
